Reference: PubChem BioAssay (NCI)
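Briefly, cells in 96-well plates were exposed to five compound concentrations for 48 h, and endpoints were estimated by linear interpolation. GI50 = concentration required for 50% inhibition of growth.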 Certain results were filed several times, with different values. This list holds those alone. The source may hold further records. For part of these data: The records of an entry are repeated measurements across runs, samples, wells, individuals or studies. What stands in brackets tells the records apart. The letters are not those of the source and start again with each entry.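 TGI: concentration producing complete growth inhibition.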 For part of these data: A record mostly stands for its own series of concentrations, which the source does not state; a value can be the end of its range.

Tests used:
Assay in all cases: DTP human tumour cell line panel, 48 h
SK-MEL-2 melanoma = test system: SK-MEL-2 melanoma
EKVX NSCLC = test system: EKVX NSCLC
IGROV1 ovarian = test system: IGROV1 ovarian
UO-31 renal = test system: UO-31 renal
786-0 renal = test system: 786-0 renal
A498 renal = test system: A498 renal
CCRF-CEM leukemia = test system: CCRF-CEM leukemia
COLO 205 colon = test system: COLO 205 colon
DMS 114 small cell lung = test system: DMS 114 small cell lung
HCT-15 colon = test system: HCT-15 colon
HL-60(TB) leukemia = test system: HL-60(TB) leukemia
HOP-18 NSCLC = test system: HOP-18 NSCLC
HOP-62 NSCLC = test system: HOP-62 NSCLC
HOP-92 NSCLC = test system: HOP-92 NSCLC
HT29 colon = test system: HT29 colon
KM20L2 colon = test system: KM20L2 colon
LOX IMVI melanoma = test system: LOX IMVI melanoma
MALME-3M melanoma = test system: MALME-3M melanoma
MOLT-4 leukemia = test system: MOLT-4 leukemia
NCI-H23 lung = test system: NCI-H23 lung
OVCAR-3 ovarian = test system: OVCAR-3 ovarian
OVCAR-4 ovarian = test system: OVCAR-4 ovarian
SF-268 CNS = test system: SF-268 CNS
SF-295 CNS = test system: SF-295 CNS
SF-539 CNS = test system: SF-539 CNS
SK-MEL-28 melanoma = test system: SK-MEL-28 melanoma
SK-MEL-5 melanoma = test system: SK-MEL-5 melanoma
SK-OV-3 ovarian = test system: SK-OV-3 ovarian
SNB-19 CNS = test system: SNB-19 CNS
SNB-78 CNS = test system: SNB-78 CNS
U251 CNS = test system: U251 CNS
UACC-257 melanoma = test system: UACC-257 melanoma
XF 498 CNS = test system: XF 498 CNS

**Q.** With `CC(C)(C)NC(=O)[C@H]1CC[C@H]2[C@@H]3CC[C@H]4NC(=O)C=C[C@]4(C)[C@H]3CC[C@]12C` as the compound, how does the GI50 (SK-MEL-2 melanoma) read?
**A.** > 100 µM [sample A, 1 test] and 8.39 µM [sample B, 1 test]

**Q.** Which TGI (EKVX NSCLC) does the source give for `Nc1cc(C(F)(F)F)c(-c2cc(N3CCOCC3)nc(N3CCOCC3)n2)cn1` here?
**A.** 5.98 µM [sample A, mean of 2 tests] and > 82.8 µM [sample B, mean of 2 tests]

**Q.** What about the TGI (IGROV1 ovarian) of the same compound?
**A.** 1.07 µM [sample A, mean of 2 tests] and > 100 µM [sample B, mean of 2 tests]

**Q.** What about the TGI (UO-31 renal) of the same compound?
**A.** 3.08 µM [sample A, mean of 2 tests] and > 100 µM [sample B, mean of 2 tests]

**Q.** For `CC(=O)OC(C)(C)/C=C/C(=O)[C@](C)(O)[C@H]1[C@H](O)C[C@@]2(C)[C@@H]3CC=C4[C@@H](C=C(O)C(=O)C4(C)C)[C@]3(C)C(=O)C[C@]12C`, which TGI (786-0 renal) is on record?
**A.** 375 nM and 27.3 nM

**Q.** And the TGI (A498 renal)?
**A.** 50.3, 109, 25.2, 43.2 nM

**Q.** What about the TGI (CCRF-CEM leukemia) of the same compound?
**A.** 478 nM, 578 nM, 494 nM, 5.29 µM

**Q.** And the TGI (COLO 205 colon)?
**A.** 391 nM, 4.14 µM, 3.15 µM, 1.08 µM

**Q.** What about the TGI (DMS 114 small cell lung) of the same compound?
**A.** 567 nM, 1.47 µM, 2.02 µM, 1.53 µM

**Q.** And the TGI (EKVX NSCLC)?
**A.** 338 nM, 2.48 µM, 573 nM, 1.02 µM

**Q.** And the TGI (HCT-15 colon)?
**A.** 879 nM, 2.19 µM, 1.59 µM, 4.51 µM

**Q.** What about the TGI (HL-60(TB) leukemia) of the same compound?
**A.** 177, 122, 758, 398 nM

**Q.** What about the TGI (HOP-18 NSCLC) of the same compound?
**A.** 101, 329, 127, 314 nM

**Q.** And the TGI (HOP-62 NSCLC)?
**A.** 290, 475, 116, 84.9 nM

**Q.** And the TGI (HOP-92 NSCLC)?
**A.** 109, 236, 37.9, 47.1 nM

**Q.** What about the TGI (HT29 colon) of the same compound?
**A.** 823 nM, 4.11 µM, 3.02 µM, 703 nM

**Q.** What about the TGI (IGROV1 ovarian) of the same compound?
**A.** 107, 187, 177, 50.4 nM

**Q.** And the TGI (KM20L2 colon)?
**A.** 487 nM, 4.43 µM, 426 nM, 2.52 µM

**Q.** And the TGI (LOX IMVI melanoma)?
**A.** 52.4 nM, 253 nM, 30.6 nM, 1.14 µM

**Q.** What about the TGI (MALME-3M melanoma) of the same compound?
**A.** 261 nM, 1.1 µM, 582 nM, 221 nM

**Q.** And the TGI (MOLT-4 leukemia)?
**A.** 3.93 µM, 11.9 µM, 996 nM

**Q.** And the TGI (NCI-H23 lung)?
**A.** 861 nM, 2.93 µM, 804 nM, 1.57 µM

**Q.** And the TGI (OVCAR-3 ovarian)?
**A.** 735, 641, 216, 91.7 nM

**Q.** And the TGI (OVCAR-4 ovarian)?
**A.** 308 nM, 199 nM, 1.06 µM, 53.7 nM

**Q.** What about the TGI (SF-268 CNS) of the same compound?
**A.** 94.5, 359, 70.1, 87.5 nM

**Q.** And the TGI (SF-295 CNS)?
**A.** 241, 162, 75, 46.8 nM

**Q.** What about the TGI (SF-539 CNS) of the same compound?
**A.** 52.5, 181, 36.1, 83.9 nM

**Q.** What about the TGI (SK-MEL-28 melanoma) of the same compound?
**A.** 101, 318, 90.3, 377 nM

**Q.** And the TGI (SK-MEL-5 melanoma)?
**A.** 388, 375, 182, 45.7 nM

**Q.** And the TGI (SK-OV-3 ovarian)?
**A.** 774 nM, 268 nM, 976 nM, 3.62 µM

**Q.** What about the TGI (SNB-19 CNS) of the same compound?
**A.** 196, 450, 191, 649 nM

**Q.** What about the TGI (SNB-78 CNS) of the same compound?
**A.** 795 nM, 2.9 µM, 231 nM, 575 nM

**Q.** And the TGI (U251 CNS)?
**A.** 166, 300, 146, 53.6 nM

**Q.** And the TGI (UACC-257 melanoma)?
**A.** 607, 450, 988, 87.9 nM

**Q.** And the TGI (UO-31 renal)?
**A.** 31.7 nM [mean of 4 tests] and 97.1 nM, 338 nM, 49.4 nM [mean of 5 tests]

**Q.** What about the TGI (XF 498 CNS) of the same compound?
**A.** 60.5 nM, 70.7 nM, < 23.5 nM, 54.2 nM
